# Measurements taken from publication PMC4336329 (PLoS ONE, 2015).
# In all, about 310,000 compounds went through this assay and about 2,200 (0.71%) showed an effect of 50% or more. Effects have a minus sign here. This is one part of the list.
# Biological target: human ether-à-go-go-related gene (hERG) potassium channel (human, UniProt Q12809)
# Assay: primary screen, population patch clamp on CHO cells stably expressing hERG
# Sequence of human ether-à-go-go-related gene (hERG) potassium channel (Q12809 whole entry, looked up): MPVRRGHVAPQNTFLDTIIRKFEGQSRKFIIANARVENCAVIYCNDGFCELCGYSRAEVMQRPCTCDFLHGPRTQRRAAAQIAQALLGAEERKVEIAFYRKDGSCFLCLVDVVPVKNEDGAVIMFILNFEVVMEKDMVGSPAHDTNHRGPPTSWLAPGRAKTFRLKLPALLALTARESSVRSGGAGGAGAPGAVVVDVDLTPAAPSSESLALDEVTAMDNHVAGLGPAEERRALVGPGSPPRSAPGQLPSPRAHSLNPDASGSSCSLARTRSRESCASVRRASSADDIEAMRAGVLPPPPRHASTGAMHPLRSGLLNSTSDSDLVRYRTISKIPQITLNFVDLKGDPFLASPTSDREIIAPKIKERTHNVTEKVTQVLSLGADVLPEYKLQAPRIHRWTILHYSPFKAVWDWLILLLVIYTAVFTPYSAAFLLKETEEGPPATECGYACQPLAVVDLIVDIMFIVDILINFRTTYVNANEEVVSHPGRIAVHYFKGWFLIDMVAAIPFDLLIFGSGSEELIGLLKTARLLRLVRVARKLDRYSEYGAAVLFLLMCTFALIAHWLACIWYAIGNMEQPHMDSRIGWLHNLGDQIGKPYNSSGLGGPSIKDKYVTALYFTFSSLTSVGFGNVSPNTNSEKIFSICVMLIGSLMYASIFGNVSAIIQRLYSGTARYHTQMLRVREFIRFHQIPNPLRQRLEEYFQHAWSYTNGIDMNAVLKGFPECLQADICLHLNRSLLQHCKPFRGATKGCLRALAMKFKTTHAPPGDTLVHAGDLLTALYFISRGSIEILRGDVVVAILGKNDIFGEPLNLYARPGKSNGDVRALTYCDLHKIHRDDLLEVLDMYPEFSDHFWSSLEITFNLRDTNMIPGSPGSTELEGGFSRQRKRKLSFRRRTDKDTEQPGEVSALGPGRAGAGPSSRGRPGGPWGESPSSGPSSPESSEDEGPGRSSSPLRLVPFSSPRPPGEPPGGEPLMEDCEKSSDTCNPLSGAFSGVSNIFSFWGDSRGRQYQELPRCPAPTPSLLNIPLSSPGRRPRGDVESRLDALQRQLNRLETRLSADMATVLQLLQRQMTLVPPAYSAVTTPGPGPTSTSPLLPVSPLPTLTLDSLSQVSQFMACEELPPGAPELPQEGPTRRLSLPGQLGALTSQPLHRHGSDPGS
row,Compound,"hERG current change (%, negative = inhibition) at 1uM"
1,O=C(O)Cn1c2ccccc2c2n[nH]c(=S)nc21,14.2%
2,O=[N+]([O-])c1ccc(N2CCN(S(=O)(=O)c3ccccc3)CC2)c2cccnc12,-75.6%
3,O=C1C2C3c4ccccc4C(Br)(c4ccccc43)C2C(=O)N1c1ccccc1O (stereo not drawn),14%
4,COC(CNC(=O)c1cccnc1)OC,5.78%
5,O=C(Nc1cc(-c2ccccc2)nn1-c1ccccc1F)c1ccc([N+](=O)[O-])cc1,1.23%
6,O=C(Nc1ccc(/C=C/c2nc3ccccc3o2)cc1)c1c(F)cccc1F,7%
7,CCN(CC)CCCNC(=O)CC1Sc2ccccc2NC1=O (stereo not drawn),3.56%
8,CCOc1ccc2[nH]cc(-c3csc(N)n3)c2c1,16.5%
9,O=C(NCc1cccs1)C1CCCN1C(=O)Nc1ccc(Cl)cc1 (stereo not drawn),22.6%
10,COc1cccc(NC(=O)CN2C(=O)NC3(CCCC3)C2=O)c1,12%
11,Cc1cc(=O)[nH]c(SCC(=O)Nc2cccc(C(F)(F)F)c2)n1,9.5%
12,Cc1cc(N)ccc1NC(=O)c1ccccc1,11.3%
13,COc1ccc(NC(=O)c2nc[nH]c2C(=O)Nc2ccccc2C)cc1,3.49%
14,CSCc1nc2sc(C(=O)Nc3nc(C)cs3)c(C)c2c(=O)[nH]1,-0.951%
15,COCCOC(=O)C1=C(C)NC2=C(C(=O)CC(C)(C)C2)C1c1ccc2c(c1)OCO2 (stereo not drawn),8.04%
16,C=CCSc1nsc(NC(=O)Nc2cccc(C(C)=O)c2)n1,13.6%
17,CN(Cc1ccsc1)C(=O)CCc1nnc(Cc2c[nH]c3ccccc23)o1,7.16%
18,CC(NC(=O)c1sc2ccccc2c1Cl)C1CCCO1 (stereo not drawn),-0.686%
19,CC(=O)Oc1ccc(C2=NN(c3ccccc3)C(c3ccccc3)C2)cc1 (stereo not drawn),15.9%
20,O=c1[nH]c(=O)n(C2CCCCC2)c(O)c1/C=N/N1CCCCC1c1cccnc1 (stereo not drawn),0.596%
21,O=c1nc2n(c3ccc([N+](=O)[O-])cc13)CCCCC2,-5.01%
22,Cc1ccc(C(=O)CC(Nc2ccc(F)cc2)c2ccccc2)cc1 (stereo not drawn),12.1%
23,COc1ccc(Nc2nc(NCc3ccco3)nc(N/N=C/c3ccccc3Cl)n2)cc1,-6.58%

row,Compound,"hERG current change (%, negative = inhibition) at 1uM"
1,CC(C)c1ccccc1NC(=O)C1C2C=CC(C2)C1C(=O)O (stereo not drawn),8.29%
2,O=C(O)Cn1c(=O)n(Cc2ccccc2)c2ccccc21,19.5%
3,O=C(CCN=C1NS(=O)(=O)c2ccccc21)OCC(=O)c1ccc(F)c(F)c1,12.7%
4,CC(=O)Nc1ccc(NC(=O)COC(=O)c2ccccc2C(=O)c2ccccc2)cc1,0.45%
5,CCOC(=O)C1(Cc2ccc(Cl)cc2)CCN(Cc2cnc(N)nc2)CC1,-60.6%
6,COC(=O)CN1C(=O)[C@H]2[C@@H](c3ccc(C)o3)N3C(=O)CN(Cc4ccccn4)C(=O)[C@@]3(Cc3ccccc3)[C@H]2C1=O,16.9%
7,Oc1ccc(NC(=S)Nc2ccc(F)cc2)cc1,14.3%
8,CCn1c(SCC(=O)NC2CC2)nnc1-c1ccc(F)cc1,15.3%
9,CCOC(=O)C1CCCN(C2CC(=O)N(c3cccc(C)c3)C2=O)C1 (stereo not drawn),3.29%
10,CCN(CC)Cc1c(O)ccc2c(=O)c(Oc3ccccc3OC)coc12,2.19%
11,O=S(=O)(c1cccc(C(F)(F)F)c1)N1CCN(C(=S)NCc2ccco2)CC1,25.7%
12,O=C(NCc1ccc(F)cc1)c1cc(-c2ccco2)on1,6.43%
13,CCSc1nnc(NC(=O)CSc2nnc(-c3c[nH]c4ccccc34)n2C)s1,9.94%
14,O=C(Nc1ccccc1-c1nnn(CC(=O)N2CCOCC2)n1)c1ccccc1F,11.9%
15,COCCNC(=O)[C@@H]1CSC2c3ccc(OC)c(OC)c3C(=O)N21 (stereo partly drawn),19.2%
16,Cc1ccc(S(=O)(=O)/N=C(/Sc2ccccc2C(=O)O)c2ccccc2)cc1,16.5%
17,O=C1CCC(C(=O)N2CCSCC2)CN1Cc1cccc(C(F)(F)F)c1 (stereo not drawn),12.5%
18,CCOC(=O)C1=NOC(CNC(=O)c2ccccc2Cl)C1 (stereo not drawn),12.7%
19,COc1ccc(N(C(C)C(=O)N/N=C/c2ccc(OC)c(OC)c2)S(C)(=O)=O)cc1 (stereo not drawn),17.3%
20,O=C(/C=C/c1ccc2c(c1)OCO2)NCCSCc1c(Cl)cccc1Cl,5.99%
21,CSc1nnc(C)c(=O)n1COC(=O)c1ccc([N+](=O)[O-])cc1,-1.84%
22,OCCN1CCN(c2ncnc3sc4c(c23)CCCC4)CC1,4.42%
